Screen size: about 150,000 compounds; about 540 (0.36%) showed an effect of 50% or more. The list shows a part of the results.
System: Plasmodium falciparum
Assay: Primary screen in NF54 nanoGlo assay, in single point, at 2uM, 72h; a lower Z score goes with more inhibition
Assay type: functional, Erythrocyte
Conditions: timepoint 72 hour

Structure (SMILES)	% Inhibition	Z score
Cc1ccc(C#N)c(N2CCC[C@H]2c2ccco2)n1	4%	-0.5
O=C(NC1CC1)C1CN(C(=O)COc2ccccc2F)C1	-12%	1.8
OC[C@H]1CNCCN1CCc1ccc2c(c1)CCO2	-11%	1.55
Cc1cc(C)n(CC2CCN(C(=O)CCS(=O)(=O)c3ccccc3)CC2)n1	-8%	1.12
Cc1ccc2oc(N(C)C[C@H](C)C(=O)O)nc2c1	7%	-1.36
OCc1ccc(CN[C@H]2[C@H](O)[C@@H](N3CCN(c4ccccc4)CC3)[C@@H]3OC[C@H]2O3)o1	12%	-1.38
COCCn1c(N)c(N(CCCc2ccccc2)Cc2ccccc2)c(=O)[nH]c1=O	-7%	0.91
CCOCCCC(=O)Nc1ncc(C(C)C)s1	-3%	0.61
COc1cc2ccncc2cc1OC(=O)c1cncc(C)c1	-9%	1.28
C[C@@]1(C(=O)Nc2cccc3ncccc23)CCCCO1	-3%	0.49
COc1nc(C)cc(N2CC(O)CC2c2cc(F)ccc2F)n1 (centres undefined)	-4%	0.79
CCCC1(C2CCN(C(=O)c3cc4ccccc4o3)CC2)NC(=O)N(CCC2CCCN2C)C1=O (centres undefined)	14%	-2.01
Cc1cccc(CN2CCOc3c(O)cc(-c4ccc(Cl)cn4)cc3C2)n1	-16%	2.16
O=C(NC[C@H]1CN(Cc2ccc(Cl)c(F)c2)CC12CCOCC2)N1CCCC1	-4%	0.81
O=C(Nc1ccnn1Cc1ccc(Cl)c(F)c1)c1ccc(C(=O)O)nc1	-1%	0.17
C[C@H]1CCc2nn3ccn(CC(=O)Nc4ccc(F)c(Cl)c4)c(=O)c3c2C1	-18%	1.64
CN(CCc1ccncc1)[C@H]1CS(=O)(=O)C[C@@H]1S(=O)(=O)c1ccccc1	0%	0.01
CC[C@H](NC(=O)COCC1CC1)c1ccc(F)cc1F	2%	-0.2
CC(=O)NS(=O)(=O)NC1CCC(C(F)(F)F)CC1 (centres undefined)	-7%	0.71
CCC(=O)Nc1ccc(C(=O)CN2C(=O)N[C@]3(CCc4ccccc4C3)C2=O)cc1	-15%	2.63
Cc1cnc(N(C)Cc2nonc2C)nc1-c1ncnn1C	-14%	1.33
COc1ccccc1CNC(=O)CNC(=O)[C@H]1CC[C@H](CNS(=O)(=O)c2ccc(F)cc2)CC1	-11%	1.12
O=C(N[C@@H](CN1CCCCCC1=O)c1ccccc1)C1CCC1	0%	-0.09
CN(C)[C@H]1CCC[C@@H]1NS(=O)(=O)Cc1ccccc1	-4%	0.56
CCOc1ccccc1NC(=O)[C@H]1CC(=O)N(c2cccc(-c3noc(C4CCC4)n3)c2)C1	-13%	1.75
Cc1n[nH]c(C)c1CCN(C)C(=O)Nc1cc(F)ccc1Cl	-17%	2.46

Structure (SMILES)	% Inhibition	Z score
COc1cccc(CNC(=O)Cn2c(=O)c3nncn3c3ncccc32)c1	-15%	1.91
COc1cc(C2C3C(=O)N(c4cccc(C)c4)C(=O)C3ON2c2ccccc2)ccc1OC(=O)c1ccccc1 (centres undefined)	6%	-0.66
O=C(Nc1cccc(-c2csc(Nc3ccccc3F)n2)c1)c1ccno1	-13%	2.43
COCCNC(=O)NCC1(c2cccs2)CC1	-12%	1.68
COc1ccc2c(c1)[C@H](C(=O)N(Cc1ccco1)c1ccccn1)CC2	0%	-0.03
Cc1cc(-c2ccc(S(=O)(=O)Nc3ccc(F)c(Cl)c3)s2)[nH]n1	-6%	1.09
COc1ccc(-c2noc(-c3cccnc3N[C@@H](C)c3ccc(C)cc3)n2)cc1	-4%	0.62
Cc1nn(-c2ccc(C(F)(F)F)cc2)c(C)c1[C@@H]1C=C[C@@H](NC(=O)CC(C)(C)CC(=O)O)C1	-7%	1.12
Clc1ccc(COc2ccccc2CNC2CCCC2)c(Cl)c1	-2%	0.22
CCC(CC)NC(=O)CON=C(N)c1ccc(C)cc1	-1%	0.18
COc1cccc(CN2CCC(F)(C(=O)N3CCCC3)CC2)c1	-12%	1.56
CC1(C)CN(C(=O)CCCOc2ccccc2)C[C@]1(C)O	-12%	2.13
O=C(O)c1ncn2c1CO[C@H](c1ccc(Cl)cc1)C2	1%	-0.1
COc1cccc(OC)c1C(=O)N1CCC([C@H](C)N2CCN(C)CC2)CC1	-12%	1.66
COc1ccc(C(=O)NCc2sc(-c3cccs3)nc2C)nn1	-9%	1.74
CC(C)c1nnc2c(N3CCC[C@H]3COc3ccccc3)nccn12	-1%	0.18
COc1cc2ncn([C@H]3[C@@H]4OC[C@@H](O4)[C@@H](NCc4cccnc4)[C@@H]3O)c2cc1OC	-9%	1.65
CCn1nc(-c2ccc(C(N)=O)cc2)nc1CCN1CCN(C)CC1	1%	-0.1
COc1c(F)c(F)cc(C(=O)NCCn2c(=O)[nH]c3ncccc3c2=O)c1F	-16%	2.72
Cc1cnc(C(C)CNC(=O)NCC2Cc3ccccc3O2)s1 (centres undefined)	-8%	0.99
Cc1cc(C(=O)NCC[C@H](O)c2cccs2)no1	-6%	0.89
CO[C@H]1CCN(C2CCN(C(=O)c3ccc4nsnc4c3)CC2)C1	-9%	1.2
C[C@@]1(C(=O)NC2CCCCC2)Cn2c(ccc2-c2ccco2)C(=O)N1Cc1ccc2c(c1)OCO2	-16%	1.55
Cc1ccccc1N1CCC(N2CCC(Cn3ccnc3)CC2)CC1	-3%	0.38
CCn1cc(CN2CCc3[nH]cnc3[C@@H]2c2cc3ccccc3n2C)c(C)n1	-3%	0.41
O=C1C[C@H](NC(=O)c2cncc(Br)c2)CN1	2%	-0.38
